The shares of active, inactive and inconclusive entries below differ from those in the screen. Entries that show only a call come without a potency. For some of these results: Potencies of inconclusive entries are doubtful fits and often do not repeat. The source made the active and inactive calls. Unless noted, calls come from the whole dose curve; as a rule, active = well fitted curve in the direction sought with a large enough effect in the repeat runs; inconclusive = weak or mixed curves; inactive = no such curve, though single readings can be large; an effect the other way counts as inactive or inconclusive.
Tests used:
[1] = qHTS assay to identify small molecule antagonists of the androgen receptor (AR) signaling pathway using the MDA cell line - cell viability counter screen (AID 743041; note: nearly all actives have a fitted effect of over 45% in size; note: potency is the fitted concentration of half-maximal effect); conditions: MDA-kb2 viability, CellTiter-Fluor, 16 h, cells co-treated with R1881 androgen agonist; viability change, negative = cytotoxic: at 70.3 µM (top of the series)
Method in brief: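 Cytotoxicity counter screen: MDA-kb2 AR-luc cells, compound + R1881, 16 h, 37C, 0% CO2; CellTiter-Fluor added at 15.5 h, fluorescence read after 30 min.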

[2] = qHTS assay to identify small molecule antagonists of the sonic hedgehog signaling (Shh) pathway - cell viability counter screen (AID 1259367); note: nearly all actives have a fitted effect of over 55% in size; note: potency is the fitted concentration of half-maximal effect
Method in brief: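 Fluorescence read-out (CellTiter-Fluor, 1 hr at 37C) taken after 23 hr compound treatment of 3T3 Gli1-Luc cells stimulated with conditioned medium. Cells were seeded at 2,000 per well and pre-incubated 4 hr.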

[3] = qHTS assay to identify small molecule antagonists of the androgen receptor (AR) signaling pathway - cell viability counter screen (AID 743033; note: nearly all actives have a fitted effect of over 45% in size; note: potency is the fitted concentration of half-maximal effect); conditions: AR-bla HEK293 viability, CellTiter-Glo luminescence, 16 h; activity change, negative = cytotoxicity: at 58.5 µM (top of the series) unless noted
[4] = qHTS assay for small molecule activators of the heat shock response signaling pathway (AID 743210; active = well fitted activation curve with a large enough effect in the signal ratio in the repeat runs, with a control signal flat, not every such curve was filed as active; inconclusive = weak or mixed curves; the % refers to the signal ratio;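 note: HeLa cells with beta-lactamase reporter driven by heat shock elements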); conditions: HeLa HSE-bla reporter, beta-lactamase ratio, 5 h; activation: at 62.6 µM (top of the series) unless noted
Method in brief: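 Beta-lactamase reporter read-out: FRET substrate fluorescence after 2.5 h at RT, following 5 h compound treatment at 37 C of HeLa cells carrying HSE-driven bla reporter; quantitative HTS format.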

[5] = Caspase-3/7 induction in CHO-K1 cells by small molecules, qHTS cell viability counter screen (AID 1346979); note: nearly all actives have a fitted effect of over 35% in size; note: potency is the fitted concentration of half-maximal effect
Method in brief: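 Wild-type CHO-K1 cells were seeded at 1,500 per well, rested 5hr at 37 C, then exposed to compounds in DMSO. After 16hr, CellTiter-Fluor reagent was added and fluorescence read 1hr later as the viability measure.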

[6] = qHTS assay to identify small molecule that activate the aryl hydrocarbon receptor (AhR) signaling pathway - cell viability counter screen (AID 743086); note: nearly all actives have a fitted effect of over 45% in size; note: potency is the fitted concentration of half-maximal effect;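 for viability change, negative = cytotoxic: HepG2 liver cells carrying the AhR DRE luciferase reporter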
Method in brief: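 HepG2-AhR-luc (HG2L7.5c1) cells, 4000/well, treated 24 h at 37 C with compound; viability measured as CellTiter-Fluor fluorescence after 30 min in the same wells as the luciferase read.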

[7] = A CellTox Green Cytotoxicity Assay to monitor cytotoxicity in HEK293 cells - 8 hour (AID 1224884); note: nearly all actives have a fitted effect of over 35% in size; note: potency is the fitted concentration of half-maximal effect
Method in brief: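 Fluorescence from a DNA-binding dye excluded by viable cells was measured repeatedly in the same HEK293 wells (600 cells/well) during continuous compound exposure at 37 C. Each assay gives one read point: 0, 8, 16, 24, 32 or 40 h.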

[8] = qHTS RealTime-Glo MT Cell Viability Assay in HEK293 cells - 24 hour (AID 1224886); note: nearly all actives have a fitted effect of over 50% in size; note: potency is the fitted concentration of half-maximal effect; for activity change, negative = cytotoxicity: top concentration of the series differs between compounds
Method in brief: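 HEK293 cells seeded with NanoLuc/prosubstrate reagent, rested 5 h at 37 C, then dosed and kept at 37 C up to 40 h. Nonlytic real-time luminescence from viable cells read at 0, 8, 16, 24, 32 and 40 h.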

[9] = qHTS RealTime-Glo MT Cell Viability Assay in HEK293 cells - 40 hour (AID 1224874); conditions: RealTime-Glo luminescence; max response: active compounds read low; note: nearly all actives have a fitted effect of over 50% in size
Method in brief: (§1)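 Luminescence, which tracks viable cell number through reduction of the prosubstrate to a NanoLuc substrate, was read over continuous 37 C culture. Cells (600/well) were premixed with reagent and rested 5 h before 23 nL of compound in DMSO was pinned.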

[10] = A CellTox Green Cytotoxicity Assay to monitor cytotoxicity in HepG2 cells - 40 hour (AID 1224879); note: nearly all actives have a fitted effect of over 40% in size
Method in brief: (§2)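 Real-time cytotoxicity: fluorescence of a cell-impermeant cyanine dye binding DNA of dead HepG2 cells, measured repeatedly (0–40 h) during compound exposure at 37 C. Cells seeded 600/well with reagent, dosed after 5 h.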

[11] = target: Cytochrome P450 3A4 (Homo sapiens) (UniProt P08684); test: Cytochrome P450 Family 3 Subfamily A Member 4 (CYP3A4) small molecule antagonists: luciferase reporter qHTS assay (AID 1671201); note: nearly all actives have a fitted effect of over 50% in size; note: potency is the fitted concentration of half-maximal effect
Chain of UniProt P08684 (P08684 whole entry, looked up): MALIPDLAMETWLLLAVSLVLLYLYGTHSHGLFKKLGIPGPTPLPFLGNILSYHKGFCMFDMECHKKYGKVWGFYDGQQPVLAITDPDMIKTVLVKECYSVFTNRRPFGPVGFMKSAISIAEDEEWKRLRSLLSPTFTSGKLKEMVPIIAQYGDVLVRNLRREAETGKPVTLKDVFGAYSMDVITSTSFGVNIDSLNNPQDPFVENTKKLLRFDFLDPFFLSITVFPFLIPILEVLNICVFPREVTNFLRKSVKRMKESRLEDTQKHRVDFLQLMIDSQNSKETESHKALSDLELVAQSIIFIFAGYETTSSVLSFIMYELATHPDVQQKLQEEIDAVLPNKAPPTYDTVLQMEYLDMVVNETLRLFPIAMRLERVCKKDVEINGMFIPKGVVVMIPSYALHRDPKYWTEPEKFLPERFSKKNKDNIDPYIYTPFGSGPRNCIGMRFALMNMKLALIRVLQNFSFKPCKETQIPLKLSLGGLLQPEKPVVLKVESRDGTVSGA
Method in brief: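 P450-Glo CYP3A4 system with proluciferin substrate; compounds preincubated 10 min RT with enzyme-substrate mix, then NADPH regeneration added for 1 h RT. Detection reagent 20 min, luminescence read as relative luminescence units.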

[12] = target: Peroxisome proliferator-activated receptor delta (Homo sapiens) (UniProt Q03181); test: qHTS assay to identify small molecule antagonists of the peroxisome proliferator-activated receptor delta (PPARd) signaling pathway (AID 743215; active = well fitted inhibition curve with a large enough effect in the signal ratio in the repeat runs, not every such curve was filed as active; inconclusive = weak or mixed curves, or effect the other way; inactive = no such curve, though single readings can be large or run the other way; the % refers to the signal ratio;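 note: cells stimulated with agonist L165041 at 300 nM final during compound exposure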); conditions: HEK293H PPARd-UAS-bla, beta-lactamase FRET ratio, antagonist, 17 h; ratio activity, negative = inhibition: at 62 µM (top of the series) unless noted
Chain of UniProt Q03181 (Q03181 whole entry, looked up): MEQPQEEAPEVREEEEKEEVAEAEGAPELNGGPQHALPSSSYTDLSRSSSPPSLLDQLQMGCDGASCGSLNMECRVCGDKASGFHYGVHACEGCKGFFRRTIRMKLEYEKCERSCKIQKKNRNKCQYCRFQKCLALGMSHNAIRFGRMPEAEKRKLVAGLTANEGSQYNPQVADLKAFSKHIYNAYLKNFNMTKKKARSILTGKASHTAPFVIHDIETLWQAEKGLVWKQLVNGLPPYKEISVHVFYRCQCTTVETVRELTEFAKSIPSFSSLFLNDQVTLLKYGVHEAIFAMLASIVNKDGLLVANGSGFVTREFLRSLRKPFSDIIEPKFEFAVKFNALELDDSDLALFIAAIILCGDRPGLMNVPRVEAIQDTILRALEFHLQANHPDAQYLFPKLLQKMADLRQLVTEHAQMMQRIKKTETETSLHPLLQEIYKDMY
Method in brief: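 Agonist L165041 (300 nM final) added with compound to PPARd-bla HEK293H UAS-bla reporter cells; 17 h incubation at 37 C. Read-out: LiveBLAzer FRET substrate, 2 h at room temperature, fluorescence intensity.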

[13] = qHTS RealTime-Glo MT Cell Viability Assay in HEK293 cells - 8 hour (AID 1224887); note: top concentration of the series differs between compounds; nearly all actives have a fitted effect of over 50% in size
Method in brief: as §1

[14] = qHTS assay to identify small molecule antagonists of the thyroid receptor (TR) signaling pathway (AID 743065); note: nearly all actives have a fitted effect of over 55% in size; note: potency is the fitted concentration of half-maximal effect
Method in brief: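 GH3.TRE-Luc rat pituitary cells (two TREs driving luciferase) were dosed with compound, then stimulated with 1 nM T3 (final) for 23.5 h at 37 C. ONE-Glo luminescence was the read-out, with CellTiter-Fluor fluorescence as the cytotoxicity counter-screen.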

[15] = A CellTox Green Cytotoxicity Assay to monitor cytotoxicity in HepG2 cells - 24 hour (AID 1224878); note: nearly all actives have a fitted effect of over 45% in size
Method in brief: as §2

[16] = target: Vitamin D3 receptor (Homo sapiens) (UniProt P11473); test: qHTS assay to identify small molecule agonists of the vitamin D receptor (VDR) signaling pathway (AID 743222; calls by dose curve; note: potency is the fitted concentration of half-maximal effect); conditions: HEK293T VDR-UAS-bla, beta-lactamase FRET ratio, 16 h; activation: at 63.5 µM (top of the series) unless noted
Chain of UniProt P11473 (P11473 whole entry, looked up): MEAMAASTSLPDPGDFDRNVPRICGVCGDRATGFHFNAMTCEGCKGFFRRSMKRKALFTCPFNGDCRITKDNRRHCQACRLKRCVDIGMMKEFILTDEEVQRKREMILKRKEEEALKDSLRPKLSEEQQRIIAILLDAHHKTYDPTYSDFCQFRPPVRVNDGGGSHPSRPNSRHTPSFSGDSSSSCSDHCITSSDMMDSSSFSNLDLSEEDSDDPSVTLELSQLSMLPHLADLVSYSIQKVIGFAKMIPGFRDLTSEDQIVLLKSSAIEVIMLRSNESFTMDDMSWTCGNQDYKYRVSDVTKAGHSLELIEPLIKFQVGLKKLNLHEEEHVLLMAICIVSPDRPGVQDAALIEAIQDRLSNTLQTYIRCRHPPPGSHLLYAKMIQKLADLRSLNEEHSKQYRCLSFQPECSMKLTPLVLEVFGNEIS
Method in brief: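 Agonist mode, beta-lactamase reporter: fluorescence from LiveBLAzer B/G FRET substrate (2 h, room temperature) read after 16 h compound treatment at 37 C of VDR-bla cells, which were pre-incubated 4 h after seeding.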

[17] = qHTS assay to identify small molecule antagonists of the estrogen receptor alpha (ER-alpha) signaling pathway using the BG1 cell line - cell viability counter screen (AID 743081); conditions: BG1Luc4E2 viability, CellTiter-Fluor, 22 h; activity change, negative = cytotoxicity: at 70.3 µM (top of the series) unless noted
[18] = Caspase-3/7 induction in HepG2 cells by small molecules, qHTS cell viability counter screen (AID 1346981); note: potency is the fitted concentration of half-maximal effect; nearly all actives have a fitted effect of over 30% in size
Method in brief: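 CellTiter-Fluor fluorescence measured viability in the same wells used for Caspase-Glo 3/7. HepG2 (wild type) at 2,000 cells/well were pre-incubated 5 hr, dosed, and given reagent at 16 hr, with 1 hr further at 37C.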

[19] = qHTS assay to identify small molecule antagonists of the estrogen receptor alpha (ER-alpha) signaling pathway using the BG1 cell line (AID 743080; calls by dose curve;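 note: BG1 cells stimulated with 17beta-estradiol alongside compound; nearly all actives have a fitted effect of over 25% in size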); conditions: BG1Luc4E2 ERE-luciferase antagonist mode, luminescence; activity change, negative = inhibition: at 70.3 µM (top of the series) unless noted
Method in brief: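 BG1-Luc-4E2 cells (endogenous full-length ER-alpha, 4xERE luciferase) hormone-starved 5 days in charcoal-stripped FBS, plated 4,000/well for 24 h, then compound plus 17beta-estradiol for 21.5 h at 37 C; ONE-Glo luminescence read.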

[20] = target: Voltage-gated inwardly rectifying potassium channel KCNH2 (Homo sapiens) (UniProt Q12809); test: Human Ether-a-go-go-Related Gene (hERG) channel small molecule antagonists: fluorescence cell-based qHTS assay (AID 1671200)
Chain of UniProt Q12809 (Q12809 whole entry, looked up): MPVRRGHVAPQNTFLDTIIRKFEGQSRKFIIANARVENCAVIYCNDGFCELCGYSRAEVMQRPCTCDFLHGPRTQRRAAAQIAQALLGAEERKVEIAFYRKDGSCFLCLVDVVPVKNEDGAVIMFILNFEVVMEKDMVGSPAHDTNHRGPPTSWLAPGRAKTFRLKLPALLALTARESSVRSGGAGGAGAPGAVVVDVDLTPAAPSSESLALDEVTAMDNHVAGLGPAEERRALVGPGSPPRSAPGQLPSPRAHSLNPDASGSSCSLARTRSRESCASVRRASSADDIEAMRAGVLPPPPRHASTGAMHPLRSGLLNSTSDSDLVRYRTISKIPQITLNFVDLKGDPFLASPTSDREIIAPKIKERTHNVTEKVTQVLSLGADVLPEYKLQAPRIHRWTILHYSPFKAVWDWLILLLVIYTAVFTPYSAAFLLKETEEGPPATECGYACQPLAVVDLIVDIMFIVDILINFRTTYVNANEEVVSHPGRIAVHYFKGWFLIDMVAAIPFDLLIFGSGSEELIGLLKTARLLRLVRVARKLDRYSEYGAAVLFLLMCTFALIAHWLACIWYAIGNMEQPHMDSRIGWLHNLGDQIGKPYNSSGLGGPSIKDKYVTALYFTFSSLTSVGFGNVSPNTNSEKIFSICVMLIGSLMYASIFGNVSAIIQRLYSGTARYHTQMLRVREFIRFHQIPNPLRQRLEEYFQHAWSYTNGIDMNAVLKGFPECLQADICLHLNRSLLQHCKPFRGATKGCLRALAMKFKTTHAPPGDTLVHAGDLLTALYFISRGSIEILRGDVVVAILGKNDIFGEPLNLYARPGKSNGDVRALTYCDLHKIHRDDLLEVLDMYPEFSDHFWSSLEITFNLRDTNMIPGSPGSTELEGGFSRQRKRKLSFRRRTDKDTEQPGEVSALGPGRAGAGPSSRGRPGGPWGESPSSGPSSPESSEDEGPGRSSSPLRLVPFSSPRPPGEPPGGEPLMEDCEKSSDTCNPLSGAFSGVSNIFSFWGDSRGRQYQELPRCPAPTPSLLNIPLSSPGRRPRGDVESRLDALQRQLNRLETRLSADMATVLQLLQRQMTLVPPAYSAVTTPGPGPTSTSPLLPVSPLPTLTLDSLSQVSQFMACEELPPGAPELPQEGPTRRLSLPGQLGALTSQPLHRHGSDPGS
Method in brief: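 U2OS cells expressing the channel were plated at 1000 cells/well, incubated overnight at 37 C, then loaded with FluxOR II thallium-sensitive dye for 1 h at room temperature in the dark, with a further 10 min at room temperature before stimulation.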
Tags give direction and shape of the fitted curve or compound fluorescence and quenching.

## CCCCNCC
[1]
  Potency: inactive

## CC(C)(C)OC=O
[2]
  Potency: inactive

## CC(=O)Nc1c(I)cc(I)c(C(=O)O)c1I
[3]
  Potency: inconclusive: 0.003 µM [cytotoxic, full curve, poor fit]
[4]
  Potency: inactive

## CCCO[Si](OCCC)(OCCC)OCCC
[5]
  Potency: inactive

## O=[N+]([O-])c1ccccc1C(F)(F)F
[6]
  Potency: inconclusive: 27.3 µM [rising, partial curve, poor fit]
[7]
  Potency: inactive
[8]
  Potency: inactive

## CCN(CC)C(=O)C1CN2CCc3cc(OC)c(OC)cc3C2CC1OC(C)=O (configuration not stated)
[9]
  max response: inactive: -4.78%
[10]
  Potency: inactive
[11]
  Potency: inconclusive: 30.9 µM [inhibitor, partial curve, poor fit]

## C=C(C)C(=O)OCCCCCCCC(C)C
[3]
  Potency: inactive
[2]
  Potency: inconclusive: 0.436 µM [cytotoxic, full curve]

## CCC(=O)CC
[12]
  Potency: inactive
[13]
  Potency: inactive

## COc1nc(N)nc2c1ncn2[C@@H]1O[C@H](CO)[C@@H](O)[C@@H]1O
[14]
  Potency: inconclusive: 23.7 µM [inhibitor, partial curve]

## COC(/C=C(\C)CCC=C(C)C)OC
[1]
  Potency: inconclusive: 54.5 µM [rising, partial curve, poor fit]
[2]
  Potency: inactive
[5]
  Potency: inconclusive: 27.3 µM [rising, full curve, poor fit]

## COc1cc2c(cc1OC)CN(C(=O)[C@H](C)N[C@@H](CCc1ccccc1)C(=O)O)[C@H](C(=O)O)C2
[11]
  Potency: inactive

## CCO[Si](C)(C)OCC
[15]
  Potency: inactive
[5]
  Potency: inactive

## CC(C)CCOC(=O)CC(C)C
[6]
  Potency: inactive
[16]
  Potency: inactive
[7]
  Potency: inconclusive: 54.9 µM [activator, single point]
[2]
  Potency: inactive

## O=C(O)c1ccccc1S
[17]
  Potency: inconclusive: 37.6 µM [rising, single point]
[7]
  Potency: inconclusive: 0.535 µM [activator, single point]
[8]
  Potency: inactive

## CC1(C)C(=O)N(Cl)C(=O)N1Cl
[5]
  Potency: inconclusive: 54.5 µM [rising, partial curve, poor fit]
[11]
  Potency: inconclusive: 35.6 µM [inhibitor, partial curve]

## CCCCCCCC1CCC(=O)O1 (configuration not stated)
[1]
  Potency: inconclusive: 24.3 µM [rising, full curve, poor fit]

## N#Cc1ccc(C2CCCc3cncn32)cc1 (configuration not stated)
[18]
  Potency: inconclusive: 13.8 µM [cytotoxic, single point]

## NS(=O)(=O)c1ccccc1OC(F)(F)F
[4]
  Potency: inactive
[12]
  ratio activity, negative = inhibition: inconclusive: -2.34%

## CC(CN1CC(=O)NC(=O)C1)N1CC(=O)NC(=O)C1 (configuration not stated)
[19]
  activity change, negative = inhibition: inconclusive: -5.83%
[12]
  Potency: inactive
[18]
  Potency: inconclusive: 59.6 µM [cytotoxic, partial curve, poor fit]

## C1COCO1
[2]
  Potency: inactive

## [K+]
[19]
  Potency: inactive
[7]
  Potency: inconclusive: 1.74 µM [activator, partial curve]

## CCCCNC1CC(C)(C)NC(C)(C)C1
[14]
  Potency: inconclusive: 68.6 µM [inhibitor, single point]
[17]
  Potency: inconclusive: 9.69 µM [cytotoxic, partial curve, poor fit]
[16]
  Potency: inactive

## O=S(O)CO
[19]
  Potency: inactive
[5]
  Potency: inactive

## Cc1occc(=O)c1OC(=O)C(C)C
[20]
  Potency: inactive

## CC1=C(C=O)C(C)(C)CC=C1
[12]
  ratio activity, negative = inhibition: inconclusive: -4.45% [at 80.4 µM]
[11]
  Potency: inconclusive: 21.8 µM [inhibitor, full curve]

## N#CC1(N)CCCCC1
[19]
  Potency: inactive
[7]
  Potency: inconclusive: 4.96 µM [activator, single point]
[8]
  Potency: inactive

## Nc1ncnc2c1ncn2Cc1c(F)cccc1Cl
[16]
  Potency: inconclusive: 0.0007 µM
[11]
  Potency: inactive

## CCCCCCCCCCCCCCCCCCN(C)C
[16]
  Potency: inactive
[7]
  Potency: inconclusive: 26.8 µM [activator, single point]

## O=C1OC(=O)c2c(Cl)c(Cl)c(Cl)c(Cl)c21
[8]
  Potency: inconclusive: 38.9 µM [cytotoxic, partial curve, poor fit]
[5]
  Potency: inconclusive: 30.6 µM [rising, partial curve, poor fit]

## NCCc1ccn[nH]1
[7]
  Potency: inactive
[5]
  Potency: inactive
[11]
  Potency: inactive

## CCN(CC)C(=O)c1cccc(C)c1
[1]
  viability change, negative = cytotoxic: inconclusive: 32.4%
[14]
  Potency: inactive
[19]
  Potency: inactive
[4]
  Potency: inactive
[5]
  Potency: inconclusive: 38.2 µM [rising, partial curve, poor fit]

## CC(=O)Nc1ccc(O)cc1
[5]
  Potency: inconclusive: 71 µM [cytotoxic, single point]

Source: PubChem BioAssay (Tox21)
